Laboratory results: PMC8986528
These are yes or no findings as the source states them, for the method shown. Binding seen in cells or lysates may run through a third protein. Some results given as binding are weak or reduced against the parent protein; the word gives no strength.

By UniProt entry, the sequences of proteins in these tests, tags left out. Where a name states a change or a piece, a line headed by the entry shows the natural chain unless it says otherwise.
UniProt Q99496: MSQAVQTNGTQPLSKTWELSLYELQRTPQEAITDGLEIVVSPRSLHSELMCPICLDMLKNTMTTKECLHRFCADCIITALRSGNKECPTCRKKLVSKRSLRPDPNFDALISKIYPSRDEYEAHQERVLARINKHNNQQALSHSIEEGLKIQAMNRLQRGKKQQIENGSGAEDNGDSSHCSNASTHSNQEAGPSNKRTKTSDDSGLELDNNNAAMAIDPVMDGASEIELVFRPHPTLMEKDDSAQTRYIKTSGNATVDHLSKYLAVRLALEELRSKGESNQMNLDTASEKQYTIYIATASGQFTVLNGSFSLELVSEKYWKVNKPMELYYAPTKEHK

Experiments:
[1] = molecular target: RING1B(Q137A/Q138A) (human (endogenous in HEK 293FT)) (UniProt Q99496); experiment: co-sedimentation; as a6, but proteins purified from RING1B-2A mutant cells
[2] = molecular target: RING1B (human (endogenous in HEK 293FT)) (UniProt Q99496); experiment: co-IP; immunoprecipitation from the DNase I-digested chromatin fraction of HEK 293FT cells (IP buffer 250 mM NaCl, 1% Triton X-100), Dynabeads Protein A/G, immunoblot; Fig. 1f, g with or without 500 U/ml benzonase
[3] = molecular target: RING1B (human (endogenous in HEK 293FT)) (UniProt Q99496); experiment: co-sedimentation; Flag–NOL9-associated and PHC2–Flag-associated proteins purified from the soluble chromatin fraction of cells with wild-type RING1B, eluted with 3×Flag peptide, 10–30% sucrose gradient, 16 h at 4 °C, fractions immunoblotted

binding [1]: no binding | binding [2]: binds | binding [3]: binds
B1: WDR18 (protein, UniProt Q9BV38 1-432)
chain: MAAPMEVAVCTDSAAPMWSCIVWELHSGANLLTYRGGQAGPRGLALLNGEYLLAAQLGKNYISAWELQRKDQLQQKIMCPGPVTCLTASPNGLYVLAGVAESIHLWEVSTGNLLVILSRHYQDVSCLQFTGDSSHFISGGKDCLVLVWSLCSVLQADPSRIPAPRHVWSHHALPITDLHCGFGGPLARVATSSLDQTVKLWEVSSGELLLSVLFDVSIMAVTMDLAEHHMFCGGSEGSIFQVDLFTWPGQRERSFHPEQDAGKVFKGHRNQVTCLSVSTDGSVLLSGSHDETVRLWDVQSKQCIRTVALKGPVTNAAILLAPVSMLSSDFRPSLPLPHFNKHLLGAEHGDEPRHGGLTLRLGLHQQGSEPSYLDRTEQLQAVLCSTMEKSVLGGQDQLRVRVTELEDEVRNLRKINRDLFDFSTRFITRPAK
